# Measured values: article PMC6212790
# Some of the results follow. At the low end of the ranking the order means little.
# Target: T1, GST-Rok (full length) (UniProt O34857)
# T1 sequence: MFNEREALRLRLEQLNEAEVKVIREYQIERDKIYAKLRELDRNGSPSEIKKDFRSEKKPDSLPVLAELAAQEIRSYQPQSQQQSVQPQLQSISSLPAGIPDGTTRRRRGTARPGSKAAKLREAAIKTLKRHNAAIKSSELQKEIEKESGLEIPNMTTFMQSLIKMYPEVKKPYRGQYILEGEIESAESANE
# Test: protein binding microarray;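 also: rank score from −0.5 (least bound) to 0.5 (best bound)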
# Conditions: Rok is a gene silencer of Bacillus subtilis; high values mean tight binding; most listed sequences are background and not binding sites; double strand, one strand shown
row,Sequence,binding signal
1,ACTTCTAG,0.217 E-score
2,CATGTGTA,0.204 E-score
3,CGCGGTTC,-0.163 E-score
4,ACGTTCCC,-0.312 E-score
5,CACACGTC,-0.205 E-score
6,CCCCTGCA,-0.381 E-score
7,CTGTCTGA,-0.191 E-score
8,ACCAAGTG,-0.0317 E-score
9,TTACATAA,0.183 E-score
10,GGGGCTGA,-0.459 E-score
11,CAGATATA,0.165 E-score
12,ATATTTTC,0.326 E-score
13,AAAACTGC,-0.0878 E-score
14,GGAAAGAC,-0.12 E-score
15,GGGCGCCA,-0.355 E-score
16,AACCTTCG,-0.0262 E-score
17,CAGCGTTA,0.0195 E-score
18,AATGAAAA,-0.0795 E-score
19,GGTTGGAC,-0.145 E-score
20,ACCGAATG,0.0417 E-score
21,GGGTCAAA,-0.145 E-score
22,TGCGTAAA,0.0234 E-score
23,AATTGCAG,-0.158 E-score
24,ATCCATGC,-0.0231 E-score
25,ACTTAACA,0.076 E-score

row,Sequence,binding signal
1,ATAGCTAC,0.333 E-score
2,ACTAACCT,0.108 E-score
3,ATTATGAA,0.272 E-score
4,TCCGTTAA,-0.0884 E-score
5,GTTAATGA,0.132 E-score
6,GCACCGGA,-0.144 E-score
7,ACTTTCGA,-0.0862 E-score
8,CACCGACC,-0.211 E-score
9,AATCCTAG,-0.0761 E-score
10,AGTCACCG,0.0567 E-score
11,GGAGTGGA,-0.248 E-score
12,AAAGCGCT,-0.129 E-score
13,CTAATGAC,-0.05 E-score
14,AAATTTTC,0.18 E-score
15,CGACAATC,0.0527 E-score
16,AAAGCGAT,-0.0865 E-score
17,TGCGTCCA,0.0832 E-score
18,CAGCAGGG,-0.193 E-score
19,CGGCATTC,-0.226 E-score
20,TAACCTGA,0.0191 E-score
21,ACTATCCG,0.163 E-score
22,ATCTGTGC,0.0954 E-score
23,CAGCCAAA,-0.0376 E-score
24,AGATTAAT,0.346 E-score
25,TCAATCAA,-0.0718 E-score

row,Sequence,binding signal
1,CTGGTATA,0.303 E-score
2,ACGGCCGC,-0.192 E-score
3,ATTTTGCA,0.0497 E-score
4,ATCCCCCA,-0.453 E-score
5,CAAGTCAA,0.171 E-score
6,ATCAAAGA,0.172 E-score
7,GCACCGGC,-0.325 E-score
8,CCCGTCCC,-0.284 E-score
9,ACCGTTTA,0.166 E-score
10,ACGTGGTG,-0.258 E-score
11,GGTGGCCA,-0.244 E-score
12,ATGCCCGA,-0.287 E-score
13,CAGGGCCC,-0.376 E-score
14,CTGCCGGC,-0.261 E-score
15,ATCTTTCA,0.0379 E-score
16,CTTAGAAG,-0.0458 E-score
17,CGTGTAGC,-0.103 E-score
18,CGTGCTAC,0.161 E-score
19,AAGTCCCC,-0.186 E-score
20,GTTTGACA,-0.14 E-score
21,AATAAACA,0.161 E-score
22,ACTGGCAC,-0.184 E-score
23,AAGGCCGC,-0.29 E-score
24,GCGTTGCA,-0.0669 E-score
25,CCATGAAC,-0.111 E-score

row,Sequence,binding signal
1,ACGTATAA,0.244 E-score
2,CGGCGCCC,-0.171 E-score
3,ATTAGTGC,0.277 E-score
4,AGGAGCGC,-0.198 E-score
5,ACTCTTGG,-0.0978 E-score
6,CAATTGCC,-0.0385 E-score
7,ACTCATCG,-0.0141 E-score
8,ATGCCGTA,0.0551 E-score
9,AGCGGTAC,-0.166 E-score
10,CTCTACTC,0.00346 E-score
11,AAGTTTGG,-0.00854 E-score
12,GAGTAATC,0.0112 E-score
13,CAACCGAG,-0.0698 E-score
14,AAAGCGTA,0.00405 E-score
15,ATATACAC,0.339 E-score
16,TCCATAAA,0.119 E-score
17,ACACAATA,0.151 E-score
18,CCTGCCAA,-0.0369 E-score
19,AGCTTTAT,0.0387 E-score
20,AGACACTA,0.125 E-score
21,CTCCAAGA,-0.0998 E-score
22,ACGTCCCA,-0.173 E-score
23,ACCCGGAC,-0.258 E-score
24,CACAGCAG,-0.275 E-score
25,ATTCCAAG,0.139 E-score

row,Sequence,binding signal
1,AAGTTGGA,-0.00588 E-score
2,ACACCGGC,-0.293 E-score
3,AATGGTCT,-0.0499 E-score
4,ACGCTGTG,-0.184 E-score
5,TGCTCAAA,-0.0504 E-score
6,ACAAACGT,0.127 E-score
7,ATCGGCCA,-0.041 E-score
8,AGCATGCC,-0.0856 E-score
9,AGTTATTC,0.069 E-score
10,GGGTTGGA,-0.22 E-score
11,TGGCACAA,-0.172 E-score
12,GTCCGGCA,-0.0982 E-score
13,GCCACATA,-0.0655 E-score
14,TGGGACCA,-0.221 E-score
15,AATTGTGA,0.214 E-score
16,GCGTAAAA,0.102 E-score
17,GCATTACA,0.129 E-score
18,AGGGTCTA,-0.159 E-score
19,ACCTTCTC,-0.145 E-score
20,CGATTGCC,-0.132 E-score
21,ACTACGGC,0.107 E-score
22,AAGATTGA,0.034 E-score
23,AGTAAACT,0.14 E-score
24,AATGCAGT,-0.0393 E-score
25,TACTTCTA,0.36 E-score

row,Sequence,binding signal
1,CTCATTAC,0.0391 E-score
2,AGTAGTAG,0.349 E-score
3,CTCTTGGA,-0.196 E-score
4,ACGGATAT,0.14 E-score
5,CCCTGACC,-0.338 E-score
6,GGCCGAAA,-0.147 E-score
7,GGGATTTA,0.119 E-score
8,ATTGGCGA,-0.00169 E-score
9,ATCTAGAC,0.113 E-score
10,GAGCCTAC,-0.162 E-score
11,GCAATGGA,-0.149 E-score
12,CTCTCGTA,-0.0549 E-score
13,GAATTTTA,0.228 E-score
14,AAGTGCTG,-0.255 E-score
15,CGGTGCGA,-0.222 E-score
16,CTCAAGCA,-0.0872 E-score
17,GCTCAATA,0.0528 E-score
18,ATACACTG,0.127 E-score
19,GGGCGTTA,-0.232 E-score
20,AAAACCAA,0.129 E-score
21,GTTGCTAA,0.0781 E-score
22,ACAAAGAG,0.0115 E-score
23,GTCCTGTA,-0.0798 E-score
24,AGGTTACA,0.0709 E-score
25,AGGTGTCC,-0.158 E-score

row,Sequence,binding signal
1,ATGGTTTG,0.06 E-score
2,ATCAGGAA,0.214 E-score
3,GATGACGA,-0.162 E-score
4,CAAGGCTC,-0.369 E-score
5,AATCGGAG,-0.0442 E-score
6,ACACTTAT,0.194 E-score
7,CGGCAGGC,-0.392 E-score
8,GAGACTCA,-0.268 E-score
9,CCATAATA,0.116 E-score
10,ATGAGATG,-0.0269 E-score
11,AGGTTCAA,0.0184 E-score
12,CGCTGATA,-0.128 E-score
13,GCAATCCA,-0.0776 E-score
14,ATCTCGCA,0.0378 E-score
15,AAACTGAA,-0.0353 E-score
16,AGAACCAC,0.0141 E-score
17,CATCGCGA,0.0993 E-score
18,AGTATATA,0.451 E-score
19,GACCTACC,-0.0238 E-score
20,CTATGGCA,-0.0358 E-score
21,CGATGCAC,0.0501 E-score
22,CTTAGCTC,-0.0364 E-score
23,AATATCTA,0.392 E-score
24,CAGTCATG,-0.0718 E-score
25,CATAGGGA,-0.158 E-score

row,Sequence,binding signal
1,AACTAACC,0.0534 E-score
2,ACAGCCAA,-0.0632 E-score
3,CTATTACA,0.293 E-score
4,CTTGTGAC,-0.182 E-score
5,ACTGAGTA,0.122 E-score
6,AGAATCAC,0.0697 E-score
7,TAGGCTCA,-0.1 E-score
8,CAACGCGA,0.0653 E-score
9,AAGCATGT,-0.0163 E-score
10,AAAGAAGA,-0.157 E-score
11,AGGGAGCC,-0.395 E-score
12,GTCGGACA,-0.126 E-score
13,AAAACTCA,0.0983 E-score
14,GGCTTAAC,-0.123 E-score
15,CACATAAG,0.136 E-score
16,CTCGACAA,-0.125 E-score
17,GTCAAATA,0.128 E-score
18,AGAAGGCA,-0.151 E-score
19,AGGAGGAC,-0.307 E-score
20,AGGTCACA,-0.201 E-score
21,AAAAGGCG,-0.0527 E-score
22,CCTCTGAG,-0.15 E-score
23,CCCTCTAG,-0.245 E-score
24,GCGGATCC,-0.241 E-score
25,AGTTCAGC,0.0483 E-score

row,Sequence,binding signal
1,TAAACCGA,0.0213 E-score
2,CACCCGTA,-0.134 E-score
3,CACCAGGC,-0.158 E-score
4,CTTGGGAA,-0.123 E-score
5,CGTGACGA,-0.252 E-score
6,AGATAGGG,-0.0883 E-score
7,GAAATGGC,-0.138 E-score
8,GCGATAGC,-0.368 E-score
9,GATTGGCA,-0.0381 E-score
10,AGTCTCGA,0.0181 E-score
11,ATTAAGAA,0.154 E-score
12,CGATTCTA,0.294 E-score
13,AGGTTCTG,0.0681 E-score
14,CTCGCCAC,-0.0895 E-score
15,ATGAGGCG,-0.173 E-score
16,ACCAGAAA,-0.0241 E-score
17,ACTACCAG,0.238 E-score
18,CATCGAAA,0.0782 E-score
19,ACCTACTA,0.372 E-score
